Data published in patent publication US20240301031A1 (JIANGSU HENGRUI PHARMACEUTICALS, published 2024).
Each block holds one binder with its values, some of them ahead of it.

Legend:
[1] = target: T1, human IL-12 (CT050-H08H, Sino biological) (human, UniProt P29459 23-219; P29460 23-328); test: SPR (Biacore), sample captured on Protein A, antigen flowed, 1:1 fit
T1 construct: Bought heterodimer
T1 sequence (looked up) 1: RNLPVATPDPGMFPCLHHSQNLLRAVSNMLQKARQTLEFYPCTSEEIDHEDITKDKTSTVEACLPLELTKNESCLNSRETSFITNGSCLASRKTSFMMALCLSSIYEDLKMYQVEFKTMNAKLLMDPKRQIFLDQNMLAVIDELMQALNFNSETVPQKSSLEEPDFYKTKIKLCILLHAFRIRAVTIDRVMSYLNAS
T1 sequence (looked up) 2: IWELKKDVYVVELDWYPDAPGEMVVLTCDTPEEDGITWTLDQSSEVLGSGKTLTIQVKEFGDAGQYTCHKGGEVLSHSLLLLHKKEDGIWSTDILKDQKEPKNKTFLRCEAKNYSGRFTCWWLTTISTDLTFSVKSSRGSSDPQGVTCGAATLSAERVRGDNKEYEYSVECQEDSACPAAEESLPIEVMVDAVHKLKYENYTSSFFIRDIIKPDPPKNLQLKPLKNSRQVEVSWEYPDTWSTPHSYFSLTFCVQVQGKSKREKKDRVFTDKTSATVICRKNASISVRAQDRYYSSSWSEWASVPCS
Experimental: (§1) A certain amount of test sample was subjected to affinity capture by a biosensor chip Protein A (GE, 29127556), then antigens at a series of concentration gradients were allowed to flow on the surface of the chip. The reaction signals were detected in real time by using Biacore (GE, 8K) to obtain association and dissociation curves. After the dissociation was completed for each cycle, the biochip was washed and regenerated with a 10 mM glycine-hydrochloric acid solution at pH 1.5 (GE, BR-1003-54). The experimental data were fitted using BIAevaluation version 4.1, GE software with a 1:1 model to obtain affinity values. The related antigen proteins used in this assay are as follows: human IL-23 (CT048-H08H, Sino biological), human IL-12 (CT050-H08H, Sino biological), human BAFF (10056-HNCH, Sino biological), human APRIL (5860-AP-010/CF, R&D Systems), cynomolgus monkey p40 (10215-CL, R&D Systems), cynomolgus monkey BAFF (BAF-CM412B, Kactus), cynomolgus monkey APRIL (APR-CM410B, Kactus), mouse BAFF (BAF-M521y, Acro Biosystems), and mouse APRIL (7907-AP/CF, R&D Systems).

[2] = target: T2, cynomolgus monkey p40 (10215-CL, R&D Systems) (cynomolgus monkey); test: as above
T2 construct: Bought protein
Experimental: as §1

[3] = target: T3, human APRIL (5860-AP-010/CF, R&D Systems) (human, UniProt O75888 115-250, limits assumed); test: cell-based or functional assay
T3 sequence (looked up): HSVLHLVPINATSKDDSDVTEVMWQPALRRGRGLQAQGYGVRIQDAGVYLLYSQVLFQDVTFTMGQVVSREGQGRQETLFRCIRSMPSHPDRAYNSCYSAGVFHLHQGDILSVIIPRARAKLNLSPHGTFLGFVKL

[4] = target: T3, human APRIL (5860-AP-010/CF, R&D …); test: competition ELISA: biotin-labeled APRIL to coated BCMA
Experimental: (§2) A receptor protein was diluted to 2 μg/mL with PBS at pH 7.4 (BasalMedia, B320) and added to a 96-well microplate (Corning, 3590) at 100 μL/well. The plate was incubated at 4° C. overnight. After the liquid was discarded, 200 μL of 1% Casein blocking solution (Thermo, 37528) was added to each well for blocking, and the plate was incubated at 37° C. for 2 h. After the blocking was completed, the blocking solution was discarded, and the plate was washed 3 times with a PBST buffer (PBS at pH 7.4 containing 0.1% tween-20) for later use. A biotin-labeled ligand protein at a fixed concentration was mixed with the antibody or fusion protein diluted in gradient, pre-incubated at 37° C. for 30 min, and added to a blocked microplate. The plate was incubated at 37° C. for 1.5 h. After the incubation was completed, the plate was washed 3 times with PBST. 100 μL of streptavidin-HRP (Invitrogen, 434323, diluted at a ratio of 1:4000) was added to each well, and the plate was incubated at 37° C. for 1 h. The supernatant was removed, and the plate was washed 3 times with PBST. […] The plate was read for absorbance values at 450 nm on a microplate reader, the curves for the inhibition of the binding of the ligands to the receptors were fitted with software, and the IC₅₀ values were calculated. […]

[5] = target: T3, human APRIL (5860-AP-010/CF, R&D …); test: competition ELISA: biotin-labeled APRIL to coated TACI
Experimental: as §2

- Kd [1]: 0.0424 nM
- koff [1]: 0.000211 s⁻¹
- kon [1]: 4.97e+06 M⁻¹ s⁻¹
- Kd [2]: 0.267 nM
- koff [2]: 0.000238 s⁻¹
- kon [2]: 891000 M⁻¹ s⁻¹
B1: TACI-Mab1 (other)
heavy: EVQLVQSGAEVKKPGESLKISCKGSGYSFTTYWLGWVRQMPGKGLDWIGIMSPVDSDIRYSPSFQGQVTMSVDKSITTAYLQWNSLKASDTAMYYCARRRPGQGYFDFWGQGTLVTVSS[omitted - human IgG1 constant region]GGSSTSCREEQGEFYDHLLRDCISCASICGQHPKQCAAFCENK
light: [omitted - about 200 residues]
notes: also called TACI antibody fusion protein

- IC50 (nM) for the inhibition of the APRIL-induced B cell proliferation [3]: 0.0892 nM
- IC50 [4]: 2.43 nM
- IC50 [5]: 0.833 nM
B2: TACI-Mab2 (other)
heavy: B1 heavy
light: STSCREEQGEFYDHLLRDCISCASICGQHPKQCAAFCENKLGGGGSGGGGSGGGGS[omitted - about 200 residues]
notes: as for B1
